From publication PMC5050407
No constants are given. Whether binding was seen depends on the method and setting. For some of these results: Binding seen in cells or lysates may run through a third protein. Some binding calls cover weakened binding; strength is not graded here. Sequences can lack the tags named with a protein. Blank lines part the entries; values can stand above or below the binder they belong to.

Amino acid sequences for entries named in this document (tags omitted).
UniProt O35343: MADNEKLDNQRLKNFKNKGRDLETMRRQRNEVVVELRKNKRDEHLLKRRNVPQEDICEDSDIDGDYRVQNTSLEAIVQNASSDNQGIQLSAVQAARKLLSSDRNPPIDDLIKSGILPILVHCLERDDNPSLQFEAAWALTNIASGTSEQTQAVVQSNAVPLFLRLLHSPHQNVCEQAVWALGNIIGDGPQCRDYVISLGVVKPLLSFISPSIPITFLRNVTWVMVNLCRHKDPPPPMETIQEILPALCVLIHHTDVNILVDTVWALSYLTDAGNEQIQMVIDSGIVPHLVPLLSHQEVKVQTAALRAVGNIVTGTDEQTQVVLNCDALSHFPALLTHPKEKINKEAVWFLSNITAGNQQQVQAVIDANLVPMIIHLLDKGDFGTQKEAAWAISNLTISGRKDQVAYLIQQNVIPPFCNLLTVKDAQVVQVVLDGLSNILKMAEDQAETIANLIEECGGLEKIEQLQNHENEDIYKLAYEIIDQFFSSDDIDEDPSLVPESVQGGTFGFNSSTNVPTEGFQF
UniProt Q60960: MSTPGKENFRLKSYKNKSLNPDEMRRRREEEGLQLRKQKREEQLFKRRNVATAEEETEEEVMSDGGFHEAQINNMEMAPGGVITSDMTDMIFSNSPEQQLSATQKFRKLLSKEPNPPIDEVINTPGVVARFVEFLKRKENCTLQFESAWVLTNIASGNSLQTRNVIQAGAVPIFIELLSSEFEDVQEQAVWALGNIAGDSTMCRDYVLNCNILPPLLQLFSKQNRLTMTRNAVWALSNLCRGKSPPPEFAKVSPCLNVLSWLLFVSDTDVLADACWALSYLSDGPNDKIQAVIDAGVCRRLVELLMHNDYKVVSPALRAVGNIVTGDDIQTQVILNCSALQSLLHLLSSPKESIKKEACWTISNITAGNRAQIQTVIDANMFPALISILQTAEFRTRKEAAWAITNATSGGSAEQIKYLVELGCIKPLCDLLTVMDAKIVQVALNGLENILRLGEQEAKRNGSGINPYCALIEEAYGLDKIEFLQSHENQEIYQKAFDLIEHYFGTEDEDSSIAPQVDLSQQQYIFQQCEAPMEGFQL

Key:
[1] = target: T1, TALDO1L, 3×FLAG- or 3×HA-tagged (transaldolase 1 long isoform) (not stated (human or mouse cDNA cloned)) (UniProt Q93092); assay: co-IP; 3×FLAG- and 3×HA-tagged TALDO1 isoforms co-expressed; lysates immunoprecipitated with anti-FLAG antibody, blotted with anti-HA and anti-FLAG
T1 sequence: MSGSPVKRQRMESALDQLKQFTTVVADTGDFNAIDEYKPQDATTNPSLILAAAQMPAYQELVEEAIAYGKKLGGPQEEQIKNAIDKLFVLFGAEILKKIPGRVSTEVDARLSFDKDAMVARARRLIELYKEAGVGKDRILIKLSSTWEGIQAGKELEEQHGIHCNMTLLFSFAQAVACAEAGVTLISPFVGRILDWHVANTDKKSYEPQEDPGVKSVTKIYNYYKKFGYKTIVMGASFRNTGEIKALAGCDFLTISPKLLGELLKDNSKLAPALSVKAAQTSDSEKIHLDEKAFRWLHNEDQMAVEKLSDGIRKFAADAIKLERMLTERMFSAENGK

[2] = target: TALDO1S, 3×FLAG- or 3×HA-tagged (transaldolase 1 short isoform) (not stated (human or mouse cDNA cloned)) (UniProt Q93092); assay: as above
[3] = target: GST-mouse importin α4 (KPNA4) (mouse) (UniProt O35343); assay: pull-down; 50 pmol GST-importin α immobilised on Glutathione Sepharose 4B, 50 pmol test protein; 20 mM HEPES pH 7.3, 150 mM NaCl, 0.5% NP-40, 1 mM DTT, 1% BSA; 4 °C, 2 h; western blot with anti-GFP; both purified
[4] = target: GST-mouse importin α1 (KPNA1) (mouse) (UniProt Q60960); assay: as above

B1: TALDO1S, 3×FLAG- or 3×HA-tagged (transaldolase 1 short isoform) (protein, UniProt Q93092-1 11-337)
chain: MESALDQLKQFTTVVADTGDFNAIDEYKPQDATTNPSLILAAAQMPAYQELVEEAIAYGKKLGGPQEEQIKNAIDKLFVLFGAEILKKIPGRVSTEVDARLSFDKDAMVARARRLIELYKEAGVGKDRILIKLSSTWEGIQAGKELEEQHGIHCNMTLLFSFAQAVACAEAGVTLISPFVGRILDWHVANTDKKSYEPQEDPGVKSVTKIYNYYKKFGYKTIVMGASFRNTGEIKALAGCDFLTISPKLLGELLKDNSKLAPALSVKAAQTSDSEKIHLDEKAFRWLHNEDQMAVEKLSDGIRKFAADAIKLERMLTERMFSAENGK
binding [1]: binds
binding [2]: binds

B4: TALDO1L, 3×FLAG- or 3×HA-tagged (transaldolase 1 long isoform) (protein, UniProt Q93092-1 1-337)
chain: T1 sequence
binding [1]: binds

Continued, values first:

binding [3]: no binding (tested: 50 pmol each)
binding [4]: no binding (tested: 50 pmol each)
B2: TALDO1S-GFP (transaldolase 1 short isoform fused to GFP) (protein, UniProt Q93092-1 11-337)
chain: B1 chain

binding [3]: binds
binding [4]: binds
B3: TALDO1L-GFP (transaldolase 1 long isoform fused to GFP) (protein, UniProt Q93092-1 1-337)
chain: T1 sequence
